Assay results published in patent US20220249679A1 (Mitsubishi Tanabe Pharma Corporation, priority 2018, published 2022).

Assays:
FGFR3-negative N87 cells = assay: Flow cytometry on FGFR3-negative control cells N87; format: binding; conditions: FIG. 11B
Experimental: (§1) Binding of Fynomers to huFGFR3 on cells was analyzed by flow cytometry using KMS-11 cells (JCRB1179) as FGFR3-positive cells and N87 (ATCC, CRL-5822) as a FGFR3-negative control cell line. Both KMS-11 and N87 cells were maintained in RPMI1640 medium (Invitrogen 52400-25). All media were supplemented with 25 U/mL penicillin, 25 µg/mL streptomycin and 10% FCS. To harvest the semi-adherent KMS-11 cells from a T150 flask, the supernatant was removed into a 50 mL falcon tube, and the cells were washed with 10 ml PBS, which was also added to the falcon tube. 2 ml of Accutase (Sigma A6964) was added to the flask, and incubated for 10 min at 37° C. The Accutase was inactivated with the addition of 10 ml medium and added to the falcon tube, which was then centrifuged (250×g, 5 min) to pellet the cells. The cells were resuspended in FACS buffer (PBS+1% FCS+0.2% sodium azide) to a cell concentration of 1×10^6 cells/mL and 100 μL was used per well (1×10^5 cells/well) for the flow cytometry staining in a 96-well round bottomed plate (Nunc 163320). For adherent N87 cells the supernatant and wash were discarded, and only the Accutase-detached cells were collected and prepared.
(§2) This mixture was serially diluted 1 in 4 down to a Fynomer concentration of 0.06 nM (8 concentrations in total). […] Cells were centrifuged in the 96-well plate (250× g, 5 min) and were resuspended with the samples indicated above, before incubation on ice for 1 hr. The plate was centrifuged and washed (PBS+0.2% sodium azide), before centrifuging again. Then 50 μL of the secondary antibody anti-mIgG Alexa488 (Life Technologies A21202) was added to the cells at a concentration of 4 pg/mL, before incubating in the dark, on ice, for 45 min. The plate was centrifuged and washed twice with PBS+0.2% sodium azide, before resuspending in FACS buffer and FACS analysis (Millipore Guava easyCyte 8HT).
(§3) FACS data analysis was performed using Prism 6. The data was transformed (X=log X), and analyzed using a non-linear fit, log(agonist) vs. response—Variable slope (4 parameters).

FGFR3+ KMS-11 cells = assay: Internalization assay (cytotoxicity of Fynomer cross-linked with MMAF-conjugated 9E10); format: cell-based
Experimental: In order to assess the ability of the Fyn SH3-derived polypeptides binding to FGFR3 to internalize upon binding to the target, an internalization assay based on the intracellular delivery of a cytotoxic agent was established.
MMAF is an antimitotic agent (blocks tubulin polymerization) and is active only upon internalization into the cells. Therefore, this assay indicates how well the Fynomers facilitate internalization of MMAF. 50 μL of KMS-11 cells at 2×10^5 cells/mL were seeded into a 96-well flat bottomed plate (Corning Costar 3610), to give 10,000 cell per well. The cells were incubated for 4 hours to allow the cells to adhere (37° C., 5% CO2). Fynomers and 9E10-MMAF were mixed at a 3:1 ratio. A 4× stock of Fynomer (4 pM) and a 4× stock of 9E10-MMAF (1.33 pM) were prepared in RPMI media (see section 5.4.1) and mixed 1:1 (40 μl+40 μL). This mixture was then serially diluted 1 in 3, to give a concentration range 1000 nM-50 pM. 50 μL of the sample was added to the 50 μL of cells (as seeded above), and incubated for 5 days (37° C., 5% CO2). Appropriate controls, the wild-type Fynomer FynSH3, MMAF-9E10 without Fynomer and also cells without addition of any reagents, were included. All samples were prepared in duplicate. After 5 days, 100 μL Cell titer glo (Promega G7573) was added to each well and incubated with gentle shaking for 10 min in the dark. As a read-out for cell viability, luminescence was measured using a Tecan M1000 instrument. Analysis was performed using Prism 6. The data was transformed (X=log X), and analyzed using a non-linear fit, log(inhibitor) vs. response—Variable slope (4 parameters).

[1] = target: T1, huFGFR3 on FGFR3-positive KMS-11 cells (Homo sapiens, UniProt P22607, Y373C); assay: Affinity measurement by flow cytometry, KMS-11; format: binding
T1 construct: host or cells: KMS-11
Experimental: as §1, §2, §3

Human CD138 His = target: T2, Human CD138 His (Homo sapiens, UniProt P18827); assay: SPR kinetic binding, human CD138; conditions: bivalent analyte fit
T2 construct: His
T2 sequence (P18827 23-310): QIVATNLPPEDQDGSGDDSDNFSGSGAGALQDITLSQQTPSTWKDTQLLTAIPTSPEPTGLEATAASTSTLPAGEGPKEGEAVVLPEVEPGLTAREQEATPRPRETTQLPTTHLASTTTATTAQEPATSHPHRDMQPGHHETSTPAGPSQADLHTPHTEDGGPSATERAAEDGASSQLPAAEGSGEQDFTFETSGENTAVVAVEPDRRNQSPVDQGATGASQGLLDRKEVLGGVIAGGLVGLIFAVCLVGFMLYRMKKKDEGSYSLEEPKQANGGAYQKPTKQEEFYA
Experimental: Murine IgGs were purified from the hybridoma supernatants and the IgGs were subject to SPR (surface plasmon resonance) for kinetic binding measurements. Human or mouse CD138 His was immobilized on a GLM chip at […] on a BioRad Proteon. […] KDs were measured using bivalent analyte fit.

mouse FGFR3c = mouse FGFR3c (Mus musculus, UniProt Q61851); assay: mFGFR3c ELISA of bi-specific binding agents; conditions: NB = No binding
From the text: Similarly, for expression of hF6 comprising G7 fused to the C-terminus of the heavy chain, a nucleic acid construct was generated comprising a coding region directing the expression of the hF6 heavy chain located 5′ of, and in-frame with, a sequence encoding the linker and a coding region directing the expression of G7. For expression of hF6 comprising G7 fused to the N-terminus of the light chain, a nucleic acid construct was generated comprising a coding region directing the expression of G7 located 5′ of, and in-frame with, a sequence encoding the linker and a coding region directing the expression of the hF6 light chain. For expression of hF6 comprising G7 fused to the C-terminus of the light chain, a nucleic acid construct was generated comprising a coding region directing the expression of the hF6 light chain located 5′ of, and in-frame with, a sequence encoding the linker and a coding region directing the expression of G7. The indicated constructs were then co-transfected into CHO cells with a nucleic acid construct directing the expression of the corresponding heavy or light chain of hF6.

[2] = KMS-11, 5 days, Fynomer:9E10-MMAF 3:1, Cell titer glo, read-out: EC50 (nM) in internalization assays
[3] = flow cytometry, Fynomer cross-linked with 9E10, read-out: EC50 (nM) on FGFR3-positive KMS-11 cells

T1 sequence (P22607 23-806 Y373C): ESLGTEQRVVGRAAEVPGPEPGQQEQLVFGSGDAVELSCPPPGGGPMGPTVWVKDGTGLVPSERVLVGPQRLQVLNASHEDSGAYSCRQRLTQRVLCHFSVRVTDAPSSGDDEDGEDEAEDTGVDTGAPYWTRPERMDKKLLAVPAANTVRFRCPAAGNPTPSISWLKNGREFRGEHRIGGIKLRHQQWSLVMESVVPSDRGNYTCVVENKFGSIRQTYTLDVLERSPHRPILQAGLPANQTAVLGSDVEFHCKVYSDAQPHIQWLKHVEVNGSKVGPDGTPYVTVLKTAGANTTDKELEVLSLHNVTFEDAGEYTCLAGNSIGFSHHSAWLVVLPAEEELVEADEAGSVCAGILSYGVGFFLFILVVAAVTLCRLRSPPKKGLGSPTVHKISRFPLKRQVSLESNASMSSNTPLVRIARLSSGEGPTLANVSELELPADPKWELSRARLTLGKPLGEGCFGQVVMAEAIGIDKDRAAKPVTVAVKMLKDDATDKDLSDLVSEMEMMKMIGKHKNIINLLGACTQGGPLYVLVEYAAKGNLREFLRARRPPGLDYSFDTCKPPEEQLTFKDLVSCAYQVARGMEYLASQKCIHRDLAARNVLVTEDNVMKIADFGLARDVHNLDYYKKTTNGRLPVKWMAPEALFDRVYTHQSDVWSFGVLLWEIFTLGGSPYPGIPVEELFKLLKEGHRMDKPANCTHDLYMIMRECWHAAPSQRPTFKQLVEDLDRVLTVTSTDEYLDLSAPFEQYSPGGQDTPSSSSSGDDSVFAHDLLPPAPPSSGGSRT
mouse FGFR3c, sequence (Q61851 21-801): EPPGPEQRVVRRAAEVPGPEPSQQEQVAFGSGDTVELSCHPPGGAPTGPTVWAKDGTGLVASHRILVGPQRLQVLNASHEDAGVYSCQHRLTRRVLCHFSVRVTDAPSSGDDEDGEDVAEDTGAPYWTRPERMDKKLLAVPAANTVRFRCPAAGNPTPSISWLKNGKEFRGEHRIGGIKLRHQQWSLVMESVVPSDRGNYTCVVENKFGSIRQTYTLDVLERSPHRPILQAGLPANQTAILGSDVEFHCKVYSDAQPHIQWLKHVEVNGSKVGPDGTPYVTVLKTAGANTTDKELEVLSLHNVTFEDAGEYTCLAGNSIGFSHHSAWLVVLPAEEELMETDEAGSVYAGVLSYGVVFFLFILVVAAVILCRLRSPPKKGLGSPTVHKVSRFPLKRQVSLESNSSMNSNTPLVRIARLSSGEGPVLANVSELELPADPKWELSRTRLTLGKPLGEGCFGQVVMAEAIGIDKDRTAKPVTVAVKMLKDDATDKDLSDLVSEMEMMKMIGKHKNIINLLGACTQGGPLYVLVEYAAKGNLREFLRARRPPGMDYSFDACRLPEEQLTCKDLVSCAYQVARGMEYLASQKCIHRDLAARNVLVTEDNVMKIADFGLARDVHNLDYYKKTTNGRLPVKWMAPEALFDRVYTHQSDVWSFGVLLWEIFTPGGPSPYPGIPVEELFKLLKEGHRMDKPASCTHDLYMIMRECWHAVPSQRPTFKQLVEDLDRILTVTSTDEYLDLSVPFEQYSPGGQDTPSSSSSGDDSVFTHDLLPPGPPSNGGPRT

| Molecule | binding to FGFR3 negative control cell line N87 (FGFR3-negative N87 cells) | EC50 (FGFR3+ KMS-11 cells; [2]) | EC50 [1, 3] | other results |
| --- | --- | --- | --- | --- |
| FF2L4C3 (protein, left off: small tags and cut ends) GVTLFVALYDYEVYGPTPMLSFHKGEKFQILNSSEGPYWEARSLTTGETGLIPSNYVAPVDSIQ | no binding | 28.5 nM and 21 nM and 26.4 nM |  |  |
| FF44L65B7 (protein, left off: small tags and cut ends) GVTLFVALYDYEVYGPTPMLSFHKGEKFQILRRGSGPYWEARSLTTGETGLIPSNYVAPVDSIQ | no binding | 1.8 nM | 0.6 nM |  |
| FF44L65G12 (protein, left off: small tags and cut ends) GVTLFVALYDYEVYGPTPMLSFHKGEKFQILRGGQGPYWEARSLTTGETGLIPSNYVAPVDSIQ | no binding | 2.5 nM | 2.2 nM |  |
| FF44L65G7 (protein, left off: small tags and cut ends) GVTLFVALYDYEVYGPTPMLSFHKGEKFQILRGGDGPYWEARSLTTGETGLIPSNYVAPVDSIQ | no binding | 2.6 nM | 4.2 nM |  |
| FF43L65D5 (protein, left off: small tags and cut ends) GVTLFVALYDYEVYGPTPMLSFHKGEKFQILRKGKGPYWEARSLATGETGLIPSNYVAPVDSIQ | no binding | 0.8 nM | 1.2 nM |  |
| FF48L66G7 (G7) (protein, left off: small tags and cut ends) GVTLFVALYDYEVYGPTPMLSFHKGEKFQILKGGSGPYWEARSLTTGETGLIPSNYVAPVDSIQ | no binding | 2.4 nM | 2.3 nM |  |
| F12P18D4.a: murine anti-CD138 hybridoma antibody; VH SEQ ID NO:88, VL SEQ ID NO:40 (antibody, listed as Mus musculus, V domains shown) VH: EVQLQQSGPELVKPGASVKMSCKASGYTFADYYMKWVKQSHGKSLEWIGDINPNSGDTFYNHKFKGKATLTVDKSSSTAYMQLNSLTSEDSAVYYCARTYYDYWGQGTTLTVSS VL: DVVMTQTPLTLSVTIGQSASISCKSSQSLLYSNGKTYLNWLLQRPGQSPKRLIYLVSKVDSGVPDRFTGSGSGTDFTLSISRVEAEDLGVYYCVQGTHFPLTFGVGTKLELKR |  |  |  | hCD138 ka (Human CD138 His): 631000 M⁻¹ s⁻¹; hCD138 kd (Human CD138 His): 0.018 s⁻¹ |
| hF6-LC-G7: bi-specific: G7 Fynomer attached to the C-terminal end of the light chain of the hF6 antibody (antibody) heavy: QVQLVQSGAEVVKPGASVKLSCKASGYTFTSYYLYWVKKAPGQGLDWIGEIYPRSGGTNINEKFLSRVTLTADTSTSTAYLELSSLTSEDTAVYYCTRSLLYWGQGTTLTVSS[letters of human IgG1 constant region left out] light: DVVMTQTPLSLSVTPGQPASISCKSSQSLLASDGKTYLNWLLQRPGQSPKRLIYLVSKLDSGVPNRFSGSGSGTDFTLQISRVEAEDVGLYYCWQGAHFPFTFGSGTKLEIKRTVAAPSVFIFPPSDEQLKSGTASVVCLLNNFYPREAKVQWKVDNALQSGNSQESVTEQDSKDSTYSLSSTLTLSKADYEKHKVYACEVTHQGLSSPVTKSFNRGECGGGGSGGGGSGGGGSGVTLFVALYDYEVYGPTPMLSFHKGEKFQILKGGSGPYWEARSLTTGETGLIPSNYVAPVDSIQ |  |  |  | EC50 (mouse FGFR3c): 0.94 nM |
| hF6-LN-G7: bi-specific: G7 Fynomer attached to the N-terminal end of the light chain of the hF6 antibody (antibody) heavy: QVQLVQSGAEVVKPGASVKLSCKASGYTFTSYYLYWVKKAPGQGLDWIGEIYPRSGGTNINEKFLSRVTLTADTSTSTAYLELSSLTSEDTAVYYCTRSLLYWGQGTTLTVSS[letters of human IgG1 constant region left out] light: GVTLFVALYDYEVYGPTPMLSFHKGEKFQILKGGSGPYWEARSLTTGETGLIPSNYVAPVDSIQGGGGSGGGGSGGGGSDVVMTQTPLSLSVTPGQPASISCKSSQSLLASDGKTYLNWLLQRPGQSPKRLIYLVSKLDSGVPNRFSGSGSGTDFTLQISRVEAEDVGLYYCWQGAHFPFTFGSGTKLEIKRTVAAPSVFIFPPSDEQLKSGTASVVCLLNNFYPREAKVQWKVDNALQSGNSQESVTEQDSKDSTYSLSSTLTLSKADYEKHKVYACEVTHQGLSSPVTKSFNRGEC |  |  |  | EC50 (mouse FGFR3c): 0.49 nM |
| FF40L54A5 (protein, left off: small tags and cut ends) GVTLFVALYDYEVMSTTALSFHKGEKFQILSQSPHGQYWEARSLTTGETGWIPSNYVAPVDSIQ |  |  |  | EC50 ([1]; Table 28 part 2, read-out: EC50 (nM) for binding to FGFR3+ KMS-11 cells): 6.6 nM; EC50 (FGFR3+ KMS-11 cells; Table 28 part 2, read-out: EC50 (nM) in internalization assay): 4.7 nM |

“And” between values parts separate entries of the source, which are not always exact repeats. Equal values may be shown once. Read-outs that look alike come from different tables or passages of the source.
